According to the RNAGym collection of RNA variant scans (doi:10.1073/pnas.2313332121):
Variants at the floor of the assay are shown more often than the library holds them.

B1: TPR 5TU (parent)
chain: GGAUCUUCUCGAUCUAACAAAAAAGACAAAUCUGCCACAAAGCUUGAGAGCAUCUUCGGAUGCAGAGGCGGCAGCCUUCGGUGGCGCGAUAGCGCCAACGUUCUCAACUAUGACACGCAAAACGCGUGCUCCGUUGAAUGGAGUUUAUCAUG

Variants of: B1
Assay: polymerase ribozyme fitness, log enrichment relative to wild type (log ratio); higher = more active; in vitro selection for triplet polymerase activity
Outline: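 Fitness is a logarithmic measure of how a genotype enriched relative to the wild type, with replicate averages weighted by inverse variance. The logarithm uses base 2, and enrichment came from Illumina sequencing of input and output libraries. Those libraries were PCR-built, transcribed mutants of each subunit of a heterodimeric triplet polymerase ribozyme, passed through one triplicate in vitro selection round that included frozen incubation at −7 °C, gel excision of extended constructs and streptavidin-bead capture. Genotypes were kept only if they had ≥10 input reads and ≥1 read per output.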

Compared with A39C G84A G143U, A41C A91G is higher in “polymerase ribozyme fitness (log ratio)” value: ≤ -4.2 for the first, -2.85 for the second.

First: A40C U44A G83A U101C G141U G152U
Second: A40U G86A
The “polymerase ribozyme fitness (log ratio)” value of the first is lower: ≤ -4.2 for the first, -0.914 for the second.

C38U G68A G80U A89G A91C C93G A107U C118G and A41C A47G G68A cannot be ordered by “polymerase ribozyme fitness (log ratio)” value: ≤ -4.2 for the first, ≤ -4.2 for the second.

A39U C76G G92U C108U and A41C A107C G133A U144G cannot be ordered by “polymerase ribozyme fitness (log ratio)” value: ≤ -4.2 for the first, ≤ -4.2 for the second.

Compared with A39C C54A G65C C93A G124U A138C, A39C A60G C87U A147C is higher in “polymerase ribozyme fitness (log ratio)” value: ≤ -4.2 for the first, -3.78 for the second.

A40G U53A A73U C93G A137U and A41C G50A G81A C87U C93G cannot be ordered by “polymerase ribozyme fitness (log ratio)” value: ≤ -4.2 for the first, ≤ -4.2 for the second.

A40G U55A G83A U104G and A39C A41C U56A C93G A98U U101C C123U cannot be ordered by “polymerase ribozyme fitness (log ratio)” value: ≤ -4.2 for the first, ≤ -4.2 for the second.

A40C C57U U82C C87A U101C C114A and A39G A40G A49C U146C cannot be ordered by “polymerase ribozyme fitness (log ratio)” value: ≤ -4.2 for the first, ≤ -4.2 for the second.

A41C C87G G100C G126A A142C and A39U C79A C125U U135G cannot be ordered by “polymerase ribozyme fitness (log ratio)” value: ≤ -4.2 for the first, ≤ -4.2 for the second.

A40G G58C C79G C87U G136U A147U G152A and A41C G42A A52C U56A G94A C96U A110C cannot be ordered by “polymerase ribozyme fitness (log ratio)” value: ≤ -4.2 for the first, ≤ -4.2 for the second.

First: A40C G143A
Second: A40C C87U G112U
The “polymerase ribozyme fitness (log ratio)” value of the first is higher: -0.684 for the first, ≤ -4.2 for the second.

A39U G59C G84A G92C A138U U139A and C38U G74A U90G U144C cannot be ordered by “polymerase ribozyme fitness (log ratio)” value: ≤ -4.2 for the first, ≤ -4.2 for the second.

C38U G65A C75G C93A and A41C C93G G94A U148G cannot be ordered by “polymerase ribozyme fitness (log ratio)” value: ≤ -4.2 for the first, ≤ -4.2 for the second.

A40U G59U C85A G88A C95A U101G G152C and A39U G58U A60U G65A G74C C75G C87A cannot be ordered by “polymerase ribozyme fitness (log ratio)” value: ≤ -4.2 for the first, ≤ -4.2 for the second.

C38U U56A G70C A91U U104A A107C U145A and A39U A66G A91G G152U cannot be ordered by “polymerase ribozyme fitness (log ratio)” value: ≤ -4.2 for the first, ≤ -4.2 for the second.

A40G G42A C85G U109A A113C G140A and A39G A91U A120C U139G G141U cannot be ordered by “polymerase ribozyme fitness (log ratio)” value: ≤ -4.2 for the first, ≤ -4.2 for the second.

Compared with A39U C51U C54U A60G U82G A98C, A39G G50C C51G G58A C93G U139G is lower in “polymerase ribozyme fitness (log ratio)” value: -3.88 for the first, ≤ -4.2 for the second.

A39C A47C C75A A120G and A39C G62A A66U U134G G143A cannot be ordered by “polymerase ribozyme fitness (log ratio)” value: ≤ -4.2 for the first, ≤ -4.2 for the second.

Compared with A40U A41C C96U, A41C G65C C79G G117C is lower in “polymerase ribozyme fitness (log ratio)” value: -0.566 for the first, ≤ -4.2 for the second.

A39U C57A G68A A110G G133U and A39C C96A U144G U148G cannot be ordered by “polymerase ribozyme fitness (log ratio)” value: ≤ -4.2 for the first, ≤ -4.2 for the second.

Compared with A40U A49G C63U C87U A107U G117C G133A U135A, C38U C93A A119C A142U is higher in “polymerase ribozyme fitness (log ratio)” value: ≤ -4.2 for the first, -3.54 for the second.

Going from A40C U146G to A40U A52G G100C, the “polymerase ribozyme fitness (log ratio)” value falls from -0.247 to ≤ -4.2.

Going from A40C U44A A60U G133C G136A G141C to A41C A120U, the “polymerase ribozyme fitness (log ratio)” value rises from ≤ -4.2 to -0.45.

Going from A40C G50A C95U U148C to A40G C75G, the “polymerase ribozyme fitness (log ratio)” value rises from ≤ -4.2 to -4.09.

C38U G50A A52U G68U G80A A97G A137U and A39G A49C G65C A66C C72U U77A cannot be ordered by “polymerase ribozyme fitness (log ratio)” value: ≤ -4.2 for the first, ≤ -4.2 for the second.

A39U C75G G92U G124C C149G and A40U U55A G59A C79U U82G G83A G128A U139G G143A cannot be ordered by “polymerase ribozyme fitness (log ratio)” value: ≤ -4.2 for the first, ≤ -4.2 for the second.

A39U U55A A64G and A39C U61A G81C A89U G94C A106C U109G C125U U134C cannot be ordered by “polymerase ribozyme fitness (log ratio)” value: ≤ -4.2 for the first, ≤ -4.2 for the second.

Going from A40G C95A U104G A142G to A40C U45A G50A A73U G92A, the “polymerase ribozyme fitness (log ratio)” value falls from -3.8 to ≤ -4.2.

A41C C75G U90G C95G and C38U U61A C69A G94C U127G cannot be ordered by “polymerase ribozyme fitness (log ratio)” value: ≤ -4.2 for the first, ≤ -4.2 for the second.

First: A39U A107G G140C
Second: A39G G141C
The “polymerase ribozyme fitness (log ratio)” value of the first is lower: ≤ -4.2 for the first, -2.65 for the second.

A40G G81A G88C and A40C A60G U61G C93A G152U cannot be ordered by “polymerase ribozyme fitness (log ratio)” value: ≤ -4.2 for the first, ≤ -4.2 for the second.

Going from C38U G46C C79G A97C U109G to C38U U45A G92C, the “polymerase ribozyme fitness (log ratio)” value rises from ≤ -4.2 to -4.13.

Compared with A40G C85A G133C G136A, A40C G58C U77A is lower in “polymerase ribozyme fitness (log ratio)” value: -3.86 for the first, ≤ -4.2 for the second.

Going from A40U C54A A110G A120U to A39U G50U G83A C96G C103U U135G, the “polymerase ribozyme fitness (log ratio)” value falls from -4.07 to ≤ -4.2.

A40C G42C C69G C85A U104G G128C G133A and A40G G50A G70C G92C A98U U151A cannot be ordered by “polymerase ribozyme fitness (log ratio)” value: ≤ -4.2 for the first, ≤ -4.2 for the second.

First: A39U G68U G86U A120G
Second: A40U C63U G70C
The “polymerase ribozyme fitness (log ratio)” value of the first is lower: ≤ -4.2 for the first, -2.97 for the second.

A39G C79U G94A and A41C G71A C76U G92A G117A cannot be ordered by “polymerase ribozyme fitness (log ratio)” value: ≤ -4.2 for the first, ≤ -4.2 for the second.

A39G C51U A52U G74A and A40U G80A C96A C99A U109A C118U U127G cannot be ordered by “polymerase ribozyme fitness (log ratio)” value: ≤ -4.2 for the first, ≤ -4.2 for the second.

First: C38U U61A A106C G141A
Second: A39G A91G A137G
The “polymerase ribozyme fitness (log ratio)” value of the first is higher: -3.01 for the first, ≤ -4.2 for the second.

Compared with A40C A52U C57U G67U, A40U A91G is higher in “polymerase ribozyme fitness (log ratio)” value: ≤ -4.2 for the first, -3.33 for the second.

A41C C75G C87U and A40U U56A G80C G84U C99A G143U cannot be ordered by “polymerase ribozyme fitness (log ratio)” value: ≤ -4.2 for the first, ≤ -4.2 for the second.

First: A39C G59A C87U U127A C129G U139G
Second: A39C A89U C116U
The “polymerase ribozyme fitness (log ratio)” value of the first is lower: ≤ -4.2 for the first, -2.02 for the second.
